Assay results from PMC6555819.
The other results are listed elsewhere or left out.

What follows are sequences tested against PPARg (Homo sapiens) (UniProt P37231). Settings: 180 nM, no RXRa, PBS pH 7.4, 2% milk, 0.02% Triton X-100, 1 mM DTT, BSA, 0.4 mg/ml salmon testes DNA; double strand, one strand shown.
Sequence of UniProt P37231 (P37231 29-505): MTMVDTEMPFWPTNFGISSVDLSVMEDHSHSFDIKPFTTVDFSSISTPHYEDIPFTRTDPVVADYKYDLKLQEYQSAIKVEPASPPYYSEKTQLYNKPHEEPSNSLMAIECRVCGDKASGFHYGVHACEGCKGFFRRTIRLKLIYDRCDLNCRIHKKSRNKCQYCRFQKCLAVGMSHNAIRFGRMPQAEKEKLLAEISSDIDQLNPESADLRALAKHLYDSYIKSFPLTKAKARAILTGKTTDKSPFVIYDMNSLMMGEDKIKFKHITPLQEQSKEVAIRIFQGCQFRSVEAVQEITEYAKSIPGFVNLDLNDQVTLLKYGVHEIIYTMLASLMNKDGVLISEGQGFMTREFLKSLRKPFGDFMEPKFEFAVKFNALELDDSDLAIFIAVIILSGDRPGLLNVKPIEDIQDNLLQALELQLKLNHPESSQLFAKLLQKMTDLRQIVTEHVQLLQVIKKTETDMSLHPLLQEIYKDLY
“GCGAGTTTCAGAGGGAGGAACAGAAACAGATGGATGGCGATTGACAGCGTAGAATGAAGG” was tested, and the binding signal (PBM z-score against 500 random probes) was 0.5. “GCTAGGCTACAAACATGTACACCATGTTACTGCAAGGCGATTGACAGCGTAGAATGAAGG” gave a binding signal (PBM z-score against 500 random probes) of -0.53. “GCGCCAGAGGTGGAATGATATGATATGTCTCTGTGTGCGATTGACAGCGTAGAATGAAGG” gave a binding signal (PBM z-score against 500 random probes) of -0.76. With “GCTGAGTCCCTGCACTAGTCGGTTTGAGCTGCTTGTGCGATTGACAGCGTAGAATGAAGG” the binding signal (PBM z-score against 500 random probes) was -0.65. “GCGAGATTCCAGATGAGAACTGCTCAGCCAAACTCTGCGATTGACAGCGTAGAATGAAGG” showed a binding signal (PBM z-score against 500 random probes) of -1.01. For “GCAAACTAAGCCAGGTCCTCACCTGTTCTCCGAGGCGCGATTGACAGCGTAGAATGAAGG”, the binding signal (PBM z-score against 500 random probes) was -0.37. Work on “GCACTACATAAGTAATCATCTCCCTCTGCAACTGGGGCGATTGACAGCGTAGAATGAAGG” yielded a binding signal (PBM z-score against 500 random probes) of 0.41. “GCTTAAGGATGGACCATTGGCTAAAGCAATGTCAAAGCGATTGACAGCGTAGAATGAAGG” was tested, and the binding signal (PBM z-score against 500 random probes) was -0.17. Sequence “GCATCCGTTCCTTGGAGGGAGTCTGCAGACTGGCTGGCGATTGACAGCGTAGAATGAAGG” has a binding signal (PBM z-score against 500 random probes) of -2.35. “GCCTGTGGAATCCAACATGCCAAATGCTTGCTTGAGGCGATTGACAGCGTAGAATGAAGG” gave a binding signal (PBM z-score against 500 random probes) of -0.84. “GCAAGAAACAACAAACTTAGTACCTAGAAACAAGAGGCGATTGACAGCGTAGAATGAAGG” showed a binding signal (PBM z-score against 500 random probes) of 0.24. “GCTCAAGGAGAAAGACACTCCTTTGAAGCGTTGGAAGCGATTGACAGCGTAGAATGAAGG” was tested, and the binding signal (PBM z-score against 500 random probes) was -1.24. For “GCTGAGACCTGTCACTCTTAGCCATGCTAGTGGTCAGCGATTGACAGCGTAGAATGAAGG”, the binding signal (PBM z-score against 500 random probes) was -0.9. “GCCATGAGGACCTGCAGCGCAATGACCTCCGAGGCAGCGATTGACAGCGTAGAATGAAGG” showed a binding signal (PBM z-score against 500 random probes) of -0.08. “GCTGCCACAGAGGATACTGTGACGTTATGCATCACTGCGATTGACAGCGTAGAATGAAGG” showed a binding signal (PBM z-score against 500 random probes) of -0.29.

These sequences were tested against T1, THRa (Homo sapiens) (UniProt P10827). Settings: 90 nM, no RXRa, PBS pH 7.4, 2% milk, 0.02% Triton X-100, 1 mM DTT, BSA, 0.4 mg/ml salmon testes DNA; double strand, one strand shown.
T1 sequence: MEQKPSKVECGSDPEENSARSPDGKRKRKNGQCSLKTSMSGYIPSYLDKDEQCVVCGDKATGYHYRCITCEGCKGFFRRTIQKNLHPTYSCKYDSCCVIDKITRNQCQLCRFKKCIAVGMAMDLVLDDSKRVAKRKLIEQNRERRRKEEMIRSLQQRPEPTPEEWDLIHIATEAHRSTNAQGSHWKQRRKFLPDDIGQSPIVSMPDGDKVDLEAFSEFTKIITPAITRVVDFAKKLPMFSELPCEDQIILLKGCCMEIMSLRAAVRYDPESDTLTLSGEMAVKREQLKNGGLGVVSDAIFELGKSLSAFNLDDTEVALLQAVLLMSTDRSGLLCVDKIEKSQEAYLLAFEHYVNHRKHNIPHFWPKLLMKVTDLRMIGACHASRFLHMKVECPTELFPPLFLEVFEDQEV
“GCATGTCAATGGTAGTTTGATGGGAATAGTATTGAGGCGATTGACAGCGTAGAATGAAGG” gave a binding signal (PBM z-score against 500 random probes) of -0.03. In the case of “GCGCCACCAGGCCTGCCTTACAAGAGCTCCTGAAGAGCGATTGACAGCGTAGAATGAAGG”, the binding signal (PBM z-score against 500 random probes) was -0.51. In the case of “GCATCTGCATAGAGCTAGAGCTATTGATTCAAAGAGGCGATTGACAGCGTAGAATGAAGG”, the binding signal (PBM z-score against 500 random probes) was -1.95.

Each sequence was assayed against T2, VDR (Homo sapiens) (UniProt P11473). Settings: 270 nM, no RXRa, PBS pH 7.4, 2% milk, 0.02% Triton X-100, 1 mM DTT, BSA, 0.4 mg/ml salmon testes DNA; double strand, one strand shown.
T2 sequence: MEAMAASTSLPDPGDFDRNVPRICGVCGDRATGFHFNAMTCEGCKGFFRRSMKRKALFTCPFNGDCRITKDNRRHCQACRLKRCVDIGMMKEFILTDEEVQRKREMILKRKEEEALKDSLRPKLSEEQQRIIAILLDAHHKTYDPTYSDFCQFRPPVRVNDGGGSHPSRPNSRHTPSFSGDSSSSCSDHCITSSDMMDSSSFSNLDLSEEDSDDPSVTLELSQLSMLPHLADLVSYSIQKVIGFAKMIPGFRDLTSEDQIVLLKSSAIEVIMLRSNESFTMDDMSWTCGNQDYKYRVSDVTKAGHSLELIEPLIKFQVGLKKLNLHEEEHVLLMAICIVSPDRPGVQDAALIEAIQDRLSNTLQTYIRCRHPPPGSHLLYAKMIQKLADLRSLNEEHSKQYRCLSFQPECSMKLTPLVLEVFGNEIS
With “GCTGGAAGATGAAGAAGAACTATTGCTCGATGGAGAGCGATTGACAGCGTAGAATGAAGG” the binding signal (PBM z-score against 500 random probes) was -0.49. “GCATCTGCATAGAGCTAGAGCTATTGATTCAAAGAGGCGATTGACAGCGTAGAATGAAGG” was tested, and the binding signal (PBM z-score against 500 random probes) was -1.55. “GCTCCCAGCCACTCAGGAGGCTGAGGCAGGAGAATTGCGATTGACAGCGTAGAATGAAGG” gave a binding signal (PBM z-score against 500 random probes) of -0.84.
